Assay results from PubChem BioAssay AID686992 (Broad Institute, 2013).
Screen size: about 260,000 compounds; about 960 (0.37%) were called active. Inconclusive results, whose numbers are uncertain, are shown with a selection of clear calls.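 The calls were made as follows: active = mean E-selectin-positive cell signal at least 10% of the positive control, reached in at least 60% of replicates, without over 20% cell loss; inconclusive = no rule given, readout overlaps actives, possibly toxicity-flagged; inactive = the rest, including those meeting only one limit.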

Molecular target: E-selectin (Homo sapiens) (UniProt P16581)
Test: inducers of endothelial E-selectin expression – imaging, HUVEC, immunofluorescence imaging, single point, primary screen (AID 686992);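 also: signal is the percent of cells scored E-selectin positive by PE staining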
Settings: at 7.58 µM, active compounds read high, normalized: neutral wells 0, TNF-alpha wells 100
Outline: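 Material: HUVEC primary endothelial cells; Amount: 3,000 cells per well; Dosing: single concentration; Medium: EGM-2 growth medium on 0.1% gelatin-coated wells; Read-out basis: percent E-selectin-positive cells; Signal: immunofluorescence imaging; Control set: TNF-alpha, DMSO.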

UniProt P16581, sequence (P16581 whole entry, looked up): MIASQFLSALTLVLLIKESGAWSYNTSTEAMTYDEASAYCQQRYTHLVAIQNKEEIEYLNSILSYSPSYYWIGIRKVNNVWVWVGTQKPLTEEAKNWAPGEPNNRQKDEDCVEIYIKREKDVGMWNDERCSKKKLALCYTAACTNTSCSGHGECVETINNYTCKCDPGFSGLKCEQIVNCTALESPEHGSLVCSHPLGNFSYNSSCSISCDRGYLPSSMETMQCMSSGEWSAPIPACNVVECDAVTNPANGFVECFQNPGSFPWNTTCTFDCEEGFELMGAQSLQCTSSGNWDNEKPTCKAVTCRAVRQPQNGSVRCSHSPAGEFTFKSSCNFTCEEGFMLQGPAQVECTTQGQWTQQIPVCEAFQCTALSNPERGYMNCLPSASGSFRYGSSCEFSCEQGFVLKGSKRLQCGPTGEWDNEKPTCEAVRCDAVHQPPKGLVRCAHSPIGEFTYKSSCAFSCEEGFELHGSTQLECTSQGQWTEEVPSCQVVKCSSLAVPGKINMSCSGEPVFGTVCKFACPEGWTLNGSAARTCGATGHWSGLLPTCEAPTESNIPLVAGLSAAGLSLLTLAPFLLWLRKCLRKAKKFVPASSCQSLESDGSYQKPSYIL

| Structure (SMILES) | activation |
| --- | --- |
| C[C@H](CO)N1C[C@H](C)[C@@H](CN(C)Cc2ccc(Cl)c(Cl)c2)Oc2ccc(NS(=O)(=O)c3ccc(F)cc3)cc2C1=O | inconclusive: 0.659% |
| CCOC(=O)[C@@H]1[C@H]2COc3cc(OC)ccc3[C@H]2N2C(=O)N(c3ccc(Cl)cc3)C(=O)[C@]12C | inconclusive: 32.2% |
| COc1ccc(S(=O)(=O)Nc2cccc3c2O[C@H](CN(C)Cc2ccc4c(c2)OCO4)[C@@H](C)CN([C@@H](C)CO)C3=O)cc1 | inconclusive: 33% |
| C[C@H]1CN([C@@H](C)CO)C(=O)c2cc(NC(=O)Cn3cnnn3)ccc2O[C@@H]1CN(C)Cc1ccc2c(c1)OCO2 | active: 38.3% |
| Brc1ccc2oc(-c3ccn[nH]3)cc2c1 | active: 73.8% |
| COc1cnc(-c2cccc(C(F)(F)F)c2)nc1OC | inconclusive: 75.2% |
| O=C(Nc1cccc2ccccc12)c1ccc([N+](=O)[O-])o1 | inconclusive: 51% |
| COc1ccc(S(=O)(=O)N(C)C[C@H]2Oc3ccc(NC(=O)c4ccncc4)cc3C(=O)N([C@H](C)CO)C[C@@H]2C)cc1 | active: 53.6% |
| O=C(C1CCCCC1)N1CC2(C1)[C@H](c1ccccc1)[C@@H](CO)N2CC1CCCC1 | inactive: 0.029% |
| c1ccc(-c2cn3nc(-c4ccccc4)c(-c4ccccc4)nc3n2)cc1 | inactive: 0.573% |
| CC(CN1C(C)CCCC1C)OC(=O)c1ccccc1Cl (stereo not given) | inconclusive: 41.8% |
| C[C@H](CO)N1C[C@H](C)[C@@H](CN(C)S(C)(=O)=O)Oc2cc(C#Cc3ccccc3)ccc2S1(=O)=O | inconclusive: 65.4% |
| Nc1nc(CN2CCN(c3ccccc3)CC2)nc(N2CCCc3ccccc32)n1 | inactive: -1.3% |
| CCCCNC(=O)C1CC(c2cccc([N+](=O)[O-])c2)=NO1 (stereo not given) | inconclusive: 62.9% |
| CC(=O)Nc1cccc(-c2ccnc3c2CC(C(=O)NCc2ccc(N(C)C)cc2)O3)c1 (stereo not given) | inactive: -0.916% |
| COCCn1c(SCC(=O)Nc2ccccc2OC)nc2c(oc3ccccc32)c1=O | inconclusive: 26.7% |
| O=C(CN(CC1CCCO1)C(=O)CNS(=O)(=O)c1ccccc1)NCc1ccc(F)cc1 (stereo not given) | active: 26.3% |
| CO[C@@H]1CN(C)C(=O)c2ccc(NC(=O)c3nc4ccccc4s3)cc2OC[C@@H](C)N(Cc2cncnc2)C[C@@H]1C | inconclusive: 106% |
| C[C@H](CO)N1C[C@H](C)[C@H](CN(C)C)Oc2ccc(NC(=O)Cc3cn(C)c4ccccc34)cc2C1=O | active: 37.3% |
| CN1CCN(NC(=S)Nc2ccc(Oc3ccccc3)cc2)CC1 | active: 223% |
| Cc1noc(C)c1S(=O)(=O)Nc1ccc2c(c1)C(=O)N([C@@H](C)CO)C[C@H](C)[C@@H](CN(C)C(=O)Nc1ccc3c(c1)OCO3)OCCCC[C@H](C)O2 | inactive: -0.263% |
| C[C@@H](NC(=O)C[C@@H]1C[C@H]2c3cc(NC(=O)c4ccc5c(c4)OCO5)ccc3O[C@H]2[C@@H](CO)O1)c1ccccc1 | inactive: 0.202% |
| CCCCNC(=O)c1ccc(CS(=O)(=O)c2ccc(C)cc2)o1 | inconclusive: 26.2% |
| CN(CC(=O)NC1CCCC1)S(=O)(=O)c1cccc(Cl)c1 | inconclusive: 62.2% |

| Structure (SMILES) | activation |
| --- | --- |
| CC(C)C#Cc1cnc2c(c1)C(=O)N([C@H](C)CO)C[C@H](C)[C@H](CN(C)Cc1ccc3c(c1)OCO3)O2 | inconclusive: 42.9% |
| O=C1CN(C(=O)COC(=O)c2cccs2)c2ccccc2N1 | active: 80% |
| CCCCN1C(=O)C(=O)N(CC(=O)Nc2sc(C)c(C)c2C(=O)OC)C1=O | inconclusive: 28.8% |
| CCSc1nc2ccc(C)cc2cc1C#N | inconclusive: 73.1% |
| C[C@@H]1CN([C@@H](C)CO)C(=O)c2cc(NC(=O)CCC(F)(F)F)ccc2O[C@H]1CN(C)Cc1ccc(C(F)(F)F)cc1 | inactive: 5.74% |
| COc1ccccc1-c1c(C)nn2c(NCCN3CCCC3)cc(C)nc12 | active: 94.4% |
| CC1=C(C(=O)N2CCOCC2)CC(CC(=O)NCc2cccs2)C(=O)N1Cc1ccc(C(C)(C)C)cc1 (stereo not given) | inconclusive: 117% |
| CC(=O)C1=C(O)C(=O)N(c2ccc(O)cc2)C1c1cccc(F)c1 (stereo not given) | inconclusive: 46.9% |
| COc1cc(N2N=C(c3ccccc3)CC2c2ccccc2)c(C=O)cc1C=O (stereo not given) | inconclusive: 44.3% |
| COCCNC(=O)C[C@@H]1C[C@H]2c3cc(N(C)C)ccc3O[C@H]2[C@@H](CO)O1 | inactive: 0.204% |
| COc1ccc(S(=O)(=O)Nc2cccc3c2O[C@H](CN(C)C(=O)NC2CCCCC2)[C@H](C)CN([C@@H](C)CO)C3=O)cc1 | inactive: -0.114% |
| C[C@H]1CN([C@@H](C)CO)S(=O)(=O)c2ccc(C#CC3CC3)cc2O[C@@H]1CN(C)Cc1ccncc1 | inactive: -0.0555% |
| CC(C)CN1C(=O)CN(S(C)(=O)=O)CC1(C)C(=O)NC(C)C (stereo not given) | inactive: 0.34% |
| COc1ccc(C2/C=C\CN(Cc3ccncc3)CC(=O)N2Cc2ccc(F)cc2)cc1 (stereo not given) | inactive: 0.629% |
| COC(=O)C(NC(=O)CCc1nnc2ccc(N3CCCCC3)nn12)C(C)C (stereo not given) | inconclusive: 36% |
| CC(C)NC(=O)N(C)C[C@@H]1Oc2ccc(NC(=O)CCCN(C)C)cc2C(=O)N([C@H](C)CO)C[C@H]1C | inconclusive: 59.6% |
| C[C@H](CO)N1C[C@H](C)[C@@H](CN(C)C(=O)Cc2ccccn2)Oc2ncc(-c3ccncc3)cc2C1=O | inconclusive: 42.8% |
| O=C(CC1CC1)N1CC[C@@H]2[C@@H](CO)Nc3ccc(-c4ccccc4)cc3[C@@H]21 | inconclusive: 49.9% |
| Cc1cccc(S(=O)(=O)N2C[C@@H](O)COC[C@@H]3O[C@H](CC(=O)NCc4ccncn4)CC[C@H]32)c1 | inconclusive: 68.9% |
| Cc1ccc(S(=O)(=O)N2CC[C@@H]3[C@@H](CO)N(C)c4ccc(-c5ccc(C#N)cc5)cc4[C@@H]32)cc1 | inactive: 3.55% |
| COc1ccc(NC(=O)Nc2cccc(C)n2)cc1 | inconclusive: 32.4% |
| CCN1C(=O)[C@H]2[C@@H](c3ccc(-c4ccc(Cl)c(Cl)c4)cc3)N[C@@](C)(C(=O)OC)[C@H]2C1=O | inactive: 0.0365% |
| CCC(CC)C(=O)Nc1nnc(S(=O)(=O)N2CCc3ccccc32)s1 | inconclusive: 70.2% |
| CCC(=O)N(C)C[C@H]1Oc2ncc(C3=CCCC3)cc2C(=O)N([C@@H](C)CO)C[C@H]1C | inconclusive: 58.4% |

| Structure (SMILES) | activation |
| --- | --- |
| O=C(CN1CCOCC1)N1CC[C@@H]2[C@H]1c1cc(-c3ccccc3)ccc1N[C@@H]2CO | inconclusive: 43.7% |
| CC(C)NC(=O)N(C)C[C@H]1Oc2ccc(NC(=O)CCC(F)(F)F)cc2CC(=O)N([C@@H](C)CO)C[C@H]1C | active: 54.6% |
| CO[C@@H]1CN(C)C(=O)c2cc(NS(C)(=O)=O)ccc2OC[C@H](C)N(Cc2cocn2)C[C@H]1C | inactive: 0.718% |
| COc1ccc(-c2cn[nH]c2-c2ccc(OCc3ccccc3)cc2O)cc1 | inactive: 0.183% |
| COCC(=O)Nc1ccc2c(c1)C(=O)N(C)C[C@@H](OC)[C@H](C)CN(C(=O)CN1CCOCC1)[C@H](C)CO2 | inactive: 0.211% |
| COc1ccc(NC(=O)CSCC(=O)N(C)Cc2ccc(Cl)c(Cl)c2)cc1 | inconclusive: 57.4% |
| Cc1ccc(C(=O)Nc2cc(C)nn2CCC#N)cc1 | active: 32.5% |
| C[C@H]1CN([C@@H](C)CO)C(=O)c2cc(NS(=O)(=O)c3ccc(Cl)cc3)ccc2O[C@@H]1CN(C)C(=O)NC1CCCCC1 | inconclusive: 38.7% |
| COC(=O)c1cccnc1-n1c(=O)c2cccnc2n(CC(=O)Nc2ccc(Br)cc2)c1=O | inconclusive: 43.6% |
| CCCCNC(=O)C[C@@H]1C[C@@]2(C(=O)OCC)CCCC=C2N(CCc2ccc(OC)c(OC)c2)C1=O | inconclusive: 40.5% |
| C[C@@H]1CN([C@@H](C)CO)C(=O)Cc2cc(NS(C)(=O)=O)ccc2O[C@@H]1CN(C)S(=O)(=O)c1cn(C)cn1 | inconclusive: 172% |
| Cc1cc(C(=O)OCC(=O)NC(=O)c2cccn2C)c2ccccc2n1 | inconclusive: 34.6% |
| C[C@@H]1CN([C@H](C)CO)C(=O)c2cc(Br)cnc2O[C@@H]1CN(C)C(=O)C1CC1 | active: 118% |
| CN1C(=O)c2cc(NS(=O)(=O)c3ccc(Cl)cc3)ccc2OC[C@H]2O[C@H](CC(=O)N3CCc4ccccc4C3)CC[C@H]21 | inactive: 0.057% |
| CN(C)C(=O)c1ccc(-c2ccc(C3[C@@H]4CN(Cc5nccs5)C[C@H]3N4)cc2)cc1 (stereo not given in full) | inconclusive: 61.5% |
| C[C@H]1CCCCO[C@@H](CN(C)C(=O)c2ccncc2)[C@@H](C)CN([C@@H](C)CO)C(=O)c2cc(NC(=O)NC3CCCCC3)ccc2O1 | inactive: -0.213% |
| O=C1CCc2cc(S(=O)(=O)Nc3ccc(C(F)(F)F)cc3)cc3c2N1CC3 | inconclusive: 42.7% |
| C[C@H](CO)N1C[C@H](C)[C@H](CN(C)C(=O)Nc2cccc3ccccc23)Oc2ccc(NS(C)(=O)=O)cc2C1=O | inconclusive: 116% |
| O=C(NN1CCOCC1)c1ccc(Cl)cc1[N+](=O)[O-] | active: 45% |
| COc1ccc(NC(=O)Nc2ccc3c(c2)C(=O)N([C@@H](C)CO)C[C@H](C)[C@@H](CN(C)S(=O)(=O)c2cn(C)cn2)OCCCC[C@H](C)O3)cc1 | inactive: 0.124% |
| CO[C@H]1CN(C)C(=O)c2cc(NC(=O)Cc3ccccc3)ccc2OC[C@@H](C)N(CC2CC2)C[C@H]1C | inactive: 0.0895% |
| O=C1c2cccc3cc([N+](=O)[O-])cc(c23)C(=O)N1CCN1CCCC1 | inactive: 0.328% |
